Reference: PubChem BioAssay AID504339 (National Center for Advancing Translational Sciences (NCATS), 2011)
The campaign covered roughly 390,000 compounds. About 17,000 (4.4%) were called active. The shares of active, inactive and inconclusive entries below differ from those in the screen. Calls come from the whole dose curve; as a rule, active = well fitted inhibition curve with a large enough effect; inconclusive = small, poorly fitted or top-dose-only effect; inactive = no such curve, though single readings can be large or run the other way. Potencies beside an inconclusive call are fits to weak or partial responses and may not hold up.

Biological target: Lysine-specific demethylase 4A (Homo sapiens) (UniProt O75164)
Chain of UniProt O75164 (O75164 whole entry, looked up, the tested form may be a part): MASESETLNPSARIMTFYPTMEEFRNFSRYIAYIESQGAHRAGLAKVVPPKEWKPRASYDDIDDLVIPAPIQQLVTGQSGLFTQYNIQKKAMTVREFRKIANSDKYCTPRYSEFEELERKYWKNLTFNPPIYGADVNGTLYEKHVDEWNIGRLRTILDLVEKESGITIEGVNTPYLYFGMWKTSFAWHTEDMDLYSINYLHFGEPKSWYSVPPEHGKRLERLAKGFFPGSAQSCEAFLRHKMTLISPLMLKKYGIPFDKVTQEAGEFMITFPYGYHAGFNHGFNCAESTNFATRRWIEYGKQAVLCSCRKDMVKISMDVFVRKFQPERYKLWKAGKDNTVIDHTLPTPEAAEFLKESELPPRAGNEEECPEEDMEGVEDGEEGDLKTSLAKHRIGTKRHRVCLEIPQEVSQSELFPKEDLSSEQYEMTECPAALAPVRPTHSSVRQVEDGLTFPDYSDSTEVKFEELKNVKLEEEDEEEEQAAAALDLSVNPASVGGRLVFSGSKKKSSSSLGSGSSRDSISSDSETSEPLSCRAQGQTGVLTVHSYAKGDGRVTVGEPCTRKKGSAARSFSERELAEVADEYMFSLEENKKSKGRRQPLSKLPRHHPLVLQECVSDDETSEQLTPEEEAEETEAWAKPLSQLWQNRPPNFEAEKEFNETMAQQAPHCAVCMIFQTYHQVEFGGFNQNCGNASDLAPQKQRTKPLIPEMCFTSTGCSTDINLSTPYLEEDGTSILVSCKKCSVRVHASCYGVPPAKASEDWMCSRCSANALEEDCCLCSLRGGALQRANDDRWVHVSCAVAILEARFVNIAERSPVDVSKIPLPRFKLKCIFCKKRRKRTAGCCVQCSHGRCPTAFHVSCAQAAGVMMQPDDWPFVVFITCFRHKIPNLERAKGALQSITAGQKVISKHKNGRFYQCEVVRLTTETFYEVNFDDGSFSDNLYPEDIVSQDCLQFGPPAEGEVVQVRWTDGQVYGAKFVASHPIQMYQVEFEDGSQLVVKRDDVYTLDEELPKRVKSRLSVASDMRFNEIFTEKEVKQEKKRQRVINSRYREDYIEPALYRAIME
Test: qHTS Assay for Inhibitors of JMJD2A-Tudor Domain; note: nearly all actives have a fitted effect of over 50% in size
Settings: AlphaScreen JMJD2A-Tudor / H3K4me3 peptide binding; series mostly up to 114 µM
Potency is the fitted concentration of half-maximal effect; tags give direction and shape of the fitted curve.

| Structure (SMILES) | Potency |
| --- | --- |
| O=[N+]([O-])c1ccc(C(=Nc2ccccc2)N2CC2)cc1 | inconclusive: 56.2 µM [inhibitor, partial curve] |
| COC(=O)C1=C(c2ccc(-c3ccccc3)c(F)c2)C[C@@H]2CC[C@H]1N2C(=O)NCCOc1ccc(OC)cc1 | inconclusive: 10 µM [inhibitor, partial curve] |
| C[N+]12CCC(CC1)C(=C(c1ccccc1)c1ccccc1)C2 | inactive |
| CCOC(=O)c1ccc(N=C(C)c2c(O)[nH]c(=O)[nH]c2=O)cc1 | inactive |
| C=CCn1c(O)c(C(C)=NCc2ccc3c(c2)OCO3)c(=O)[nH]c1=O | inactive |
| O=C1CC(=O)N(c2ccc(Cl)cc2Cl)C(=O)N1 | inactive |
| Cc1ccccc1N | inactive |
| COc1cc(/C=C2/SC(=S)N(Cc3ccccc3)C2=O)ccc1OCC(=O)O | inconclusive: 44.7 µM [inhibitor, partial curve] |
| Cc1ccc(N)c(C(=O)c2ccccc2)c1 | inconclusive: 50.1 µM [inhibitor, partial curve] |
| O=C1NC(=O)C(=Cc2ccc(-c3ccccc3[N+](=O)[O-])o2)C(=O)N1 | inconclusive: 31.6 µM [inhibitor, full curve] |
| C=CCN1CCc2cccc3c2[C@H]1Cc1ccc(O)c(O)c1-3 | active: 15.8 µM |
| CN1CCN(S(=O)(=O)c2ccc(C3CCCCC3)cc2)CC1 | active: 89.1 µM |
| Cc1[nH]c2ccc(O)cc2c1CCN | inconclusive: 63.1 µM [inhibitor, partial curve, poor fit] |
| CCC(C)n1c(O)c(C(c2ccccn2)c2c(O)n(C(C)CC)c(=S)[nH]c2=O)c(=O)[nH]c1=S (configuration not stated) | inconclusive: 39.8 µM [inhibitor, partial curve] |
| CC(=NNC(=S)N1CC2CCC(CC2)C1)c1nccs1 | active: 20 µM |
| O=C1NC(=O)C(=Cc2ccc(-c3ccc(Cl)cc3)o2)C(=O)N1 | inconclusive: 79.4 µM [inhibitor, partial curve] |
| NS(=O)(=O)c1nc[nH]c1[N+](=O)[O-] | active: 20 µM |
| COc1ccc(CC[n+]2cc(/N=C(\C)[O-])on2)cc1OC | inconclusive: 44.7 µM [inhibitor, partial curve] |
| CCC(=O)N1CCN(c2cc3c(cc2F)c(=O)c(C(=O)O)cn3CC)CC1 | active: 6.31 µM |
| COc1cc(C2c3cc4c(cc3CC3COC(=O)C32)OCO4)cc(OC)c1O (configuration not stated) | active: 89.1 µM |
| O=C1C=CC(=O)C2C1C1(Cl)C(Cl)=C(Cl)C2(Cl)C1(Cl)Cl (configuration not stated) | inconclusive: 56.2 µM [inhibitor, partial curve] |
| COc1ccc(N2CCN(C(CNC(=O)Oc3ccccc3)c3cccnc3)CC2)cc1 (configuration not stated) | inconclusive: 56.2 µM [inhibitor, partial curve] |
| Clc1ccc(CNCCc2ccc3c(c2)OCO3)cc1 | active: 25.1 µM |
| CCOc1ccccc1OCCCCN1CCCC1 | active: 31.6 µM |

| Structure (SMILES) | Potency |
| --- | --- |
| CCN(CC)c1ccc(NC(=O)c2cccc(C)c2)cc1S(=O)(=O)Nc1ccccc1OC | inconclusive: 70.8 µM [inhibitor, single point] |
| COc1ccc(OC)c(CNCCc2ccc(OC)c(OC)c2)c1 | active: 17.8 µM |
| O=C1NC(=O)C(=Cc2ccc(Sc3ccccc3)o2)C(=O)N1 | inconclusive: 89.1 µM [inhibitor, partial curve] |
| CCN1C(=NCCCOC(C)C)N[C@@H](c2ccccc2)[C@H](C(=O)OC)[C@H]1C | inconclusive: 35.5 µM [inhibitor, partial curve] |
| CC(C)=CCC/C(C)=C/CN(CC(C)O)CC(C)O (configuration not stated) | active: 3.16 µM |
| CSc1ncc(/C=C2/C(=O)NC(=O)N(C3CCCCC3)C2=O)cn1 | inconclusive: 79.4 µM [inhibitor, single point] |
| COc1ccc(C2=CC(c3ccc(OC)c(OC)c3)c3c(c4ccccc4oc3=O)O2)cc1OC (configuration not stated) | inconclusive: 44.7 µM [inhibitor, partial curve] |
| CCCCC(=O)N/N=C/c1c(O)n(CC)c(=S)[nH]c1=O | inconclusive: 44.7 µM [inhibitor, partial curve] |
| NS(=O)(=O)c1ccc(N=Cc2c(O)n(C3CCCCC3)c(=O)n(C3CCCCC3)c2=O)cc1 | inconclusive: 89.1 µM [inhibitor, partial curve] |
| Cc1c(C=O)c2ccccc2n1Cc1cccc(F)c1 | inconclusive: 25.1 µM [inhibitor, single point] |
| Cn1c(SCC(=O)N2CCOCC2)nnc1-c1cccc(NC(=O)c2ccccc2)c1 | active: 89.1 µM |
| O=C(Cn1c(=O)n(CC2CCC(C(=O)NCCc3ccccc3)CC2)c(=O)c2ccccc21)Nc1cccc(F)c1 (configuration not stated) | active: 56.2 µM |
| O=C(N/N=C/c1c(O)n(Cc2ccco2)c(=O)[nH]c1=O)c1ccccc1 | active: 79.4 µM |
| COc1cc(OC)c(/C=C2\C(=O)Nc3ccccc32)c(OC)c1 | active: 56.2 µM |
| CCOc1ccc(CCNC(=O)c2cc3c(-c4ccc(OC)c(OC)c4)nn(C)c3s2)cc1OCC | inconclusive: 11.2 µM [inhibitor, full curve, poor fit] |
| OCCCc1ccc(O)c(O)c1 | active: 39.8 µM |
| CC1Cc2ccccc2N1Cc1cccc(S(=O)(=O)N(C)C)c1 (configuration not stated) | inconclusive: 39.8 µM [inhibitor, partial curve] |
| CCOCCSc1nc2c(c(-c3cccs3)c1C#N)CC/C2=C/c1cccs1 | inactive |
| Cc1cccc(C(=O)NC(Oc2ccccc2)C(Cl)(Cl)Cl)c1 (configuration not stated) | active: 39.8 µM |
| Cc1ccc(S(=O)(=O)c2nc(-c3ccccc3Cl)oc2N(C)C2CCN(C)CC2)cc1 | inconclusive: 3.55 µM [inhibitor, full curve, poor fit] |
| CCN(CC)c1ccc(/C=C2\C(=O)NC(=O)N(Cc3ccco3)C2=O)cc1 | inconclusive: 50.1 µM [inhibitor, partial curve] |
| Cc1ccc(N2C(=O)NC(=O)/C(=C\C=C\c3ccco3)C2=O)cc1C | inconclusive: 44.7 µM [inhibitor, partial curve] |
| CCOc1ccc(C=C2C(=O)NC(=S)NC2=O)cc1OCC | inconclusive: 14.1 µM [inhibitor, full curve, poor fit] |
| O=C1c2ccccc2C(=O)N1SC1CCCCC1 | inconclusive: 50.1 µM [inhibitor, partial curve] |

| Structure (SMILES) | Potency |
| --- | --- |
| Cc1ccc(C=C2C(Cl)=C(Cl)C(Cl)=C2Cl)cc1 | active: 14.1 µM |
| COc1ccc2c(c1)c(C(=O)O)c(C)n2CC(C)C | inactive |
| CCCCC(=O)N/N=C/c1c(O)n(CC)c(=S)n(CC)c1=O | inconclusive: 79.4 µM [inhibitor, partial curve] |
| CCOc1cccc(=NC2CCCCC2)c2c(C)[nH]c(C)c12 | inconclusive: 50.1 µM [inhibitor, partial curve] |
| Cc1ccc(Cl)cc1Nc1nn2c(=O)c3ccc(C(=O)NCc4cccs4)cc3nc2s1 | inconclusive: 56.2 µM [inhibitor, partial curve] |
| CN1C[C@H](C(=O)N[C@]2(C)O[C@@]3(O)[C@@H]4CCCN4C(=O)[C@H](Cc4ccccc4)N3C2=O)CC2c3cccc4[nH]cc(c34)C[C@H]21 (some centres not stated) | inconclusive: 56.2 µM [inhibitor, partial curve] |
| COc1ccc(CNC(=O)/C=C/c2ccc3[nH]cc(CCN(C)C)c3c2)cc1 | inactive |
| COc1ccc(CNCCc2ccccc2F)c(OC)c1C | active: 17.8 µM |
| O=C(CSc1nc2c([nH]c3ccccc32)c(=O)n1-c1ccccc1)c1ccccc1 | inconclusive: 3.98 µM [inhibitor, single point] |
| CCCCCn1c(=O)c(C(=O)Nc2cnccn2)c(O)c2ccccc21 | active: 44.7 µM |
| O=C1NC(=O)N(c2ccccc2)C(=O)/C1=C/c1ccc(Sc2ccccc2)o1 | active: 56.2 µM |
| CCOc1cc2c(cc1OCC)-n1cccc1C(c1ccc(F)c(OC)c1)NC2 (configuration not stated) | inconclusive: 56.2 µM [inhibitor, partial curve] |
| C[n+]1c2cc(N)ccc2cc2ccc(N)cc21 | inconclusive: 79.4 µM [inhibitor, partial curve] |
| COc1ccc(/C=C2/C(=O)NC(=O)N(c3ccc(C)c(C)c3)C2=O)cc1CN1C(=O)c2ccccc2C1=O | active: 50.1 µM |
| CN1CCN(c2ccc(N)cc2Cl)CC1 | inconclusive: 3.16 µM [inhibitor, partial curve] |
| Cc1ncc2n1-c1ccc(Cl)cc1C(c1ccccc1F)=NC2 | inconclusive: 50.1 µM [inhibitor, partial curve] |
| C[C@@]1([C@@H](NP(=O)(c2ccccc2)c2ccccc2)c2ccccc2)C[C@H]1CCO | inactive |
| CN1CCN(c2ccc([N+](=O)[O-])c(NCc3ccco3)c2)CC1 | inconclusive: 50.1 µM [inhibitor, partial curve] |
| Cc1cccc(C2=NCC(=O)N(CC(=O)NCc3ccco3)c3sc4c(c32)CCCC4)c1 | active: 50.1 µM |
| CCOc1ccc(N2C(=O)/C(=C/c3ccco3)C(=O)NC2=S)cc1 | active: 0.794 µM |
| O=C(C[n+]1ccccc1)c1ccc(Cl)cc1 | inconclusive: 31.6 µM [inhibitor, partial curve] |
| Cc1cc(O)cc2c1O[C@@](C)(CCC[C@@H](C)CCC[C@@H](C)CCCC(C)C)CC2 | inconclusive: 100 µM [inhibitor, partial curve, poor fit] |
| NNCc1ccccc1 | active: 20 µM |
| C[N+](C)(C)CC#CCN1CCCC1=O | inconclusive: 56.2 µM [inhibitor, partial curve] |
